Among all 48,000 compounds or so, about 120 (0.25%) were called active. Not shown: some 4% with an inconclusive outcome. The call rests on the fitted dose curve; in most records, active means well fitted activation curve with a large enough effect; inconclusive means small, poorly fitted or top-dose-only effect, or another doubt; inactive means no such curve, though single readings can be large or run the other way. This is one part of the list.
Assay: Primary qHTS for Identification of Small Molecule Activators of Huntingtin-Antisense Promoter Activity; further: nearly all actives have a fitted effect of over 55% in size
Conditions: HEK293 HTT-AS promoter firefly luciferase reporter (activity 0% = vehicle and -100% = no light), 24 h; series mostly up to 57.5 µM; activity change, positive = activation: at the top concentration
Summary of the method: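 Firefly luciferase signal from promoter-reporter HEK293 cells was scaled between vehicle (0%) and zero RLU (-100%). Compounds were tested at final concentrations of up to 57.5 uM over 24 h at 37 degrees C. PTC124 at 50 uM final served as control inhibitor.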

Activity change, positive = activation, inactive:
COc1ccc(-c2cc(C(F)(F)F)nc(SCC(=O)NC(C)c3ccccc3)n2)cc1 (stereo not given) -17%
O=C(Cn1ncc2c3ccccc3n(Cc3ccccc3)c2c1=O)NCc1ccccn1 -10.5%
COc1ccc(Nc2ncc3c(n2)CCN(Cc2sccc2C)C3)c(OC)c1 -7.8%
COc1ccc2c(CNCCc3ccco3)c(C(=O)O)n(Cc3ccc(C)cc3)c2c1 -23.3%
COc1ccc(C(CNC(=O)c2oc3cc(Br)ccc3c2C)N2CCCCC2)cc1 (stereo not given) 13.5%
O=[N+]([O-])c1ccc(S(=O)(=O)N2CCn3cccc3C2c2ccc(Br)cc2)cc1 (stereo not given) -24.3%
Cc1ccc(-n2nc(C(=O)N(C)c3ccc(C)c(C)c3)c3c4ccccc4n(C)c3c2=O)cc1 -7.72%
Cc1ccc(S(=O)(=O)N(CC(=O)Nc2cccnc2)c2cc(Cl)ccc2C)cc1 -51%
CCOC(=O)CN1C(=O)N(c2ccc(C)c(C)c2)S(=O)(=O)c2ccccc21 -30.3%
Cc1ccc(CN2CCC(CNC(=O)c3cnn(-c4ccc(C)cc4)c3C3CCN(C(=O)OC(C)(C)C)CC3)CC2)cc1 -94.2%
Cc1cc(=O)n(CC(=O)Nc2ccc(Cl)c(Cl)c2)c(-n2nc(C)cc2C)n1 -47.5%
COc1ccc(NC(=O)CC2C(=O)N(c3ccccc3)C(=O)N2CCc2sccc2C)cc1 (stereo not given) 15.7%
Cc1cccc(NC(=O)CCCn2nc(C)c3c(C)n(-c4ccccc4)nc3c2=O)c1C 0.678%
CCOc1ccc(CNC(=O)C2CCCN(c3nn4cc(-c5ccc(OC)cc5)nc4s3)C2)cc1 (stereo not given) 1.82%
CCOC(=O)C1CCN(C(=O)c2cnn(-c3ccc(F)cc3)c2-n2cccc2)CC1 -32%
CCOC(=O)c1[nH]c2c(c1Cc1ccccc1)C(=O)CC(c1ccc(C(C)(C)C)cc1)C2 (stereo not given) -31.5%
CCc1ccc(NC(=O)CSc2nnc(CC)c(CC)n2)cc1 -11.8%
CCN(CC)S(=O)(=O)c1cc(-c2ccc(=O)n(C(C)C(=O)Nc3cccc(C#N)c3)n2)ccc1C (stereo not given) -32.6%
Cc1ccc(Cn2c(CN3CCC(C(=O)O)CC3)cc3ccccc32)cc1 -3.4%
COc1ccc(C(=O)Nc2nc3c(s2)Cc2c(Br)ccc(OC)c2-3)cc1OC -2.79%
Cc1cc(C)cc(N(CC(=O)Nc2c(C)cc(C)cc2C)S(=O)(=O)c2c(C)nn(C)c2C)c1 -21.7%
CCN(CC)CCCNC(=O)c1sc2nc3n(c(=O)c2c1C)CCCCC3 -3.64%
COc1ccc(-c2noc(CSc3nnc(Cc4ccccc4)n3-c3ccc(F)cc3)n2)cc1 -34.7%
CN(CC(=O)Nc1ccc(F)cc1F)S(=O)(=O)c1cccc2nsnc12 11.9%
COc1ccc(CNC(=O)CCCn2ccc3cc(S(=O)(=O)N4CCCC4)ccc32)cc1 -15.9%

— PubChem BioAssay AID1508624 (National Center for Advancing Translational Sciences (NCATS), 2021)
